Measured values taken from patent US20250230242A1, “PHARMACEUTICAL COMPOSITION OF ANTI-TIM-3 ANTIBODY AND HYPOMETHYLATING AGENT” (NANJING SHUNXIN PHARMACEUTICALS CO., LTD. OF CHIATAI …, priority 2022, published 2025).

Columns and labels:
[1] = Multiple intravenous injections safety study in cynomolgus monkeys; format: in vivo; conditions: i.v. once a week for 5 consecutive times
[2] = tested on: IFN-γ secretion in MLR (mature DCs + CD4+ T cells from human PBMCs); assay: IFN-γ secretion in mixed lymphocyte reaction (MLR); format: cell-based; conditions: 100, 10 and 1 μg/mL, 5 days, FIG. 2
Procedure: After the incubation was completed, the supernatant was aspirated, and the content of IFN-γ in the supernatant was detected by using an IFN-γ detection kit (Cisbio).

human B7-H3 = biological target: T1, human B7-H3 (Homo sapiens, UniProt Q5ZPR3); assay: ELISA binding to human B7-H3 recombinant protein; conditions: at 100 μg/mL
T1 construct: purchased Sino Biological Inc
T1 sequence (Q5ZPR3 29-534): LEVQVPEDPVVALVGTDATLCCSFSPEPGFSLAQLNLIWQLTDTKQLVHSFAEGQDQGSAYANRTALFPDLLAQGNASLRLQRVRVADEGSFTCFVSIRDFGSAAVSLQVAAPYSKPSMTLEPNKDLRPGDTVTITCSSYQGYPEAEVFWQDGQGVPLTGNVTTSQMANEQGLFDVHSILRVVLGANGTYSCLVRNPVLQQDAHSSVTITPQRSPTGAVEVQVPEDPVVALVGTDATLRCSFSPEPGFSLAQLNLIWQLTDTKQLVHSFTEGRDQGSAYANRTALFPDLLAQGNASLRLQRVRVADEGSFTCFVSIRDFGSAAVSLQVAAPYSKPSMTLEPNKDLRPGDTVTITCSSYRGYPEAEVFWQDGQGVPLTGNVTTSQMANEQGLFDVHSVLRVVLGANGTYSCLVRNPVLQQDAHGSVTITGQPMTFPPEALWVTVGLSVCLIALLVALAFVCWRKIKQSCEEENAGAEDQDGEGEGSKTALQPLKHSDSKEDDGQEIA
Procedure: (§1) After the 96-well plate was washed with PBS (pH 7.4), Goat anti-human Ig kappa chain-HRP conjugate (Millipore) was added for incubation at 37° C. for 1 h, and the HRP substrate o-phenylenediamine dihydrochloride (OPD) was added. After the reaction was stopped with H2SO4, the OD value was measured at a wavelength of 450 nm using a full-function microplate reader Synergy H4 (BioTek), and the binding EC50 was calculated based on the OD value.
as §1, with “PBST for 3 times, Anti-His HRP (Sino Biological Inc.)” for “PBS (pH 7.4), Goat anti-human Ig kappa chain-HRP conjugate (Millipore)”, “room temperature” for “37° C.”, “OPD” for “o-phenylenediamine dihydrochloride (OPD)”

[3] = Phase I safety, tolerability and pharmacokinetic study in subjects with advanced solid tumors; format: in vivo, human; conditions: all dose groups, dose range 1-1800 mg/person
human B7-1 = biological target: T2, human B7-1 (Homo sapiens, UniProt P33681); assay: ELISA binding to human B7-1 recombinant protein; conditions: at 100 μg/mL
T2 construct: purchased Sino Biological Inc
T2 sequence (P33681 35-288): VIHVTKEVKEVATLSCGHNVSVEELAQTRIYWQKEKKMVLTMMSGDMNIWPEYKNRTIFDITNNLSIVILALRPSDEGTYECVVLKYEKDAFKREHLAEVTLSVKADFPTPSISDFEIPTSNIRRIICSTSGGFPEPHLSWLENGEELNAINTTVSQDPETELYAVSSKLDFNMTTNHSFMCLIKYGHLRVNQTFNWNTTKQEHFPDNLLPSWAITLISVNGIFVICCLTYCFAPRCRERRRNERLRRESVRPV
Procedure: as §1
as §1, with “PBST for 3 times, Anti-His HRP (Sino Biological Inc.)” for “PBS (pH 7.4), Goat anti-human Ig kappa chain-HRP conjugate (Millipore)”, “room temperature” for “37° C.”, “OPD” for “o-phenylenediamine dihydrochloride (OPD)”

CHO-S-HuTIM-3 cells [4] = assay: CDC against CHO-S-HuTIM-3 cells; format: cell-based; conditions: 10 or 100 μg/mL, 10% human serum, FIG. 4
Procedure: CHO-S-HuTIM-3 cells and Daudi cells (Shanghai Cell Bank of Chinese Academy of Sciences) were inoculated into a 96-well plate. […] Finally, CCK-8 reagent (Dojindo Laboratories) was added and reacted for 4 h. The OD value was measured at a wavelength of 450 nm using a microplate reader, and the lysis rate (%) was calculated.

[5] = tested on: cynomolgus monkey TIM-3 recombinant protein; assay: ELISA binding to cynomolgus monkey TIM-3 recombinant protein
Procedure: as §1, with “PBST for 3 times, Anti-His HRP (Sino Biological Inc.)” for “PBS (pH 7.4), Goat anti-human Ig kappa chain-HRP conjugate (Millipore)”, “room temperature” for “37° C.”, “OPD” for “o-phenylenediamine dihydrochloride (OPD)”

[6] = biological target: T3, CHO-S-HuTIM-3 cells highly expressing human TIM-3 (Homo sapiens, UniProt Q8TDQ0); assay: Binding to cells highly expressing human TIM-3 (cell ELISA)
T3 construct: expressed in transfected cells; host or cells: CHO-S
Procedure: The human TIM-3 gene was transfected into CHO-S cells, and the cells were incubated in an incubator at 37° C. with 5% CO2 using a Dynamis AGT medium (containing 4 mM glutamic acid and 3 μg/mL Puromycin) to give CHO-S-HuTIM-3 cells. […] After the reaction was stopped with H2SO4, the OD value was measured at a wavelength of 450 nm using a full-function microplate reader Synergy H4. The binding EC50 was calculated based on the OD value.

[7] = in vivo, iv, 10 mg/kg
[8] = tested on: lung cancer HCC827 subcutaneous xenograft tumors; assay: T cell subsets in TILs of HCC827 subcutaneous xenograft tumors in PBMC-NCG mice; format: in vivo, human immune reconstituted mice (PBMC-NCG); conditions: Mean ± SD
mouse TIM-3 = biological target: T4, mouse TIM-3 (Mus musculus, UniProt Q8VIM0); assay: ELISA binding to mouse TIM-3 recombinant protein; conditions: at 100 μg/mL
T4 construct: purchased Novoprotein
Procedure: as §1
as §1, with “PBST for 3 times, Anti-His HRP (Sino Biological Inc.)” for “PBS (pH 7.4), Goat anti-human Ig kappa chain-HRP conjugate (Millipore)”, “room temperature” for “37° C.”, “OPD” for “o-phenylenediamine dihydrochloride (OPD)”

human EGFR = biological target: T5, human EGFR (Homo sapiens, UniProt P00533); assay: ELISA binding to human EGFR recombinant protein; conditions: at 100 μg/mL
T5 construct: purchased Sino Biological Inc
Procedure: as §1
as §1, with “PBST for 3 times, Anti-His HRP (Sino Biological Inc.)” for “PBS (pH 7.4), Goat anti-human Ig kappa chain-HRP conjugate (Millipore)”, “room temperature” for “37° C.”, “OPD” for “o-phenylenediamine dihydrochloride (OPD)”

CHO-S-HuTIM-3 cells [9] = assay: ADCC against CHO-S-HuTIM-3 cells; format: cell-based; conditions: 10 or 100 μg/mL, effector cells PBMC, FIG. 3
Procedure: After the reaction was completed, the mixture was centrifuged, and the supernatant was collected and measured for fluorescence values at 490 nm as excitation wavelength and 515 nm as emission wavelength. The cells were lysed directly with 0.1% Triton X-100 and centrifuged, and then the supernatant was collected to determine the total fluorescence value. The lysis rate (%) was calculated based on the fluorescence value.

Human TIM-3 = biological target: T6, Human TIM-3 (Homo sapiens, UniProt Q8TDQ0); assay: ELISA binding to human TIM-3 recombinant protein
T6 construct: purchased R&D
Procedure: as §1
as §1, with “PBST for 3 times, Anti-His HRP (Sino Biological Inc.)” for “PBS (pH 7.4), Goat anti-human Ig kappa chain-HRP conjugate (Millipore)”, “room temperature” for “37° C.”, “OPD” for “o-phenylenediamine dihydrochloride (OPD)”

rat TIM-3 = biological target: T7, rat TIM-3 (Rattus norvegicus, UniProt P0C0K5); assay: ELISA binding to rat TIM-3 recombinant protein; conditions: at 100 μg/mL
T7 construct: purchased Chinese Academy of Sciences Shanghai Institute of Materia Medica
T7 sequence (P0C0K5 22-282): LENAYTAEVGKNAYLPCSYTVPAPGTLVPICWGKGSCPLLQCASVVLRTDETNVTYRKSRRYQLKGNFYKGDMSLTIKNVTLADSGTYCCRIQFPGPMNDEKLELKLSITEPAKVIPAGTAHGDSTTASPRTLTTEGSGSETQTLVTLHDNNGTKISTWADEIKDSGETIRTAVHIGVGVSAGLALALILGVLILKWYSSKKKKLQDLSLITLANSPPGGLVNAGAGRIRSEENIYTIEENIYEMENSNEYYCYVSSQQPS
Procedure: as §1
as §1, with “PBST for 3 times, Anti-His HRP (Sino Biological Inc.)” for “PBS (pH 7.4), Goat anti-human Ig kappa chain-HRP conjugate (Millipore)”, “room temperature” for “37° C.”, “OPD” for “o-phenylenediamine dihydrochloride (OPD)”

human PD-1 = biological target: T8, human PD-1 (Homo sapiens, UniProt Q15116); assay: ELISA binding to human PD-1 recombinant protein; conditions: at 100 μg/mL
T8 construct: purchased Sino Biological Inc
Procedure: as §1
as §1, with “PBST for 3 times, Anti-His HRP (Sino Biological Inc.)” for “PBS (pH 7.4), Goat anti-human Ig kappa chain-HRP conjugate (Millipore)”, “room temperature” for “37° C.”, “OPD” for “o-phenylenediamine dihydrochloride (OPD)”

[10] = 72 h after single i.v. 10 mg/kg
[11] = 168 h after single i.v. 10 mg/kg
[12] = 168 h after single i.v. 10 mg/kg, 10 mg/kg

T8 sequence (Q15116 25-288): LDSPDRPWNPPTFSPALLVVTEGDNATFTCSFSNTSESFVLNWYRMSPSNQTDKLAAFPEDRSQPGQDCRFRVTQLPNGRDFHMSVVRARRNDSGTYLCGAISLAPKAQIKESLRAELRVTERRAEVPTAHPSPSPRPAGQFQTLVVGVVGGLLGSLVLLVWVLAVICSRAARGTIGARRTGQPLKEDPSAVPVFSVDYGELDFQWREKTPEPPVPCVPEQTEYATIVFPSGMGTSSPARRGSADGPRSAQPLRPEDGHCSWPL
T4 sequence (Q8VIM0 20-281): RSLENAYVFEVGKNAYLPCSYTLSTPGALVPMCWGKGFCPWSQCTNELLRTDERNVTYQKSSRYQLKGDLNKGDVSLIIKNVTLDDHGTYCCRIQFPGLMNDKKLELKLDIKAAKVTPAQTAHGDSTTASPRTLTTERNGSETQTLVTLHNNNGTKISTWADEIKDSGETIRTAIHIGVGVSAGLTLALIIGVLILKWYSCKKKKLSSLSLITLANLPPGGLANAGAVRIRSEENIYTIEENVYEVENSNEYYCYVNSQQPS

B1: h50B5: humanized anti-TIM-3 antibody (IgG4), heavy chain SEQ ID NO: 9, light chain SEQ ID NO: 10; humanized from mouse mAb 50B5 (antibody)
heavy: QVQLVQSGAEVKKPGASVKVSCKASGYSFTGYTINWVRQAPGQGLEWMGLFNPYNGGTTYAQKFQGRVTMTVDKSTSTVYMELSSLRSEDTAVYYCARRYYGYDAMDYWGQGTLVTVSSASTKGPSVFPLAPCSRSTSESTAALGCLVKDYFPEPVTVSWNSGALTSGVHTFPAVLQSSGLYSLSSVVTVPSSSLGTKTYTCNVDHKPSNTKVDKRV[not shown - human IgG4 Fc with S228P (EU numbers)]
light: DIQMTQSPSSLSASVGDRVTITCKSSQSVLYSSNQKNHLAWYQQKPGKAPKLLIYWASTRESGVPSRFSGSGSGTDFTLTISSLQPEDFATYYCHQYLSSYTFGQGTKLEIKRTVAAPSVFIFPPSDEQLKSGTASVVCLLNNFYPREAKVQWKVDNALQSGNSQESVTEQDSKDSTYSLSSTLTLSKADYEKHKVYACEVTHQGLSSPVTKSFNRGEC
modifications: Heavy chain for anti-TIM-3 antibody; Light chain for anti-TIM-3 antibody
notes: humanized from mouse mAb 50B5
no observed adverse effect level (NOAEL) [1]: 150 mg/kg
effect on IFN-γ secretion in MLR [2]: significantly promoting the secretion of IFN-γ in MLR, showing greater activity than that of TSR022
binding to human B7-H3 protein (human B7-H3): no obvious binding
dose-limiting toxicity (DLT) [3]: no dose-limiting toxicity (DLT) was observed
binding to human B7-1 protein (human B7-1): no obvious binding
CDC against CHO-S-HuTIM-3 cells (CHO-S-HuTIM-3 cells [4]): did not show significant CDC
maximum binding Emax (OD450), cynomolgus monkey TIM-3 protein ([5]; ELISA, OD450): 0.34±0.03
EC50 of binding to cynomolgus monkey TIM-3 protein ([5]; ELISA, antibody coated at 2 μg/mL): 1.639 ± 0.0141 µg/mL
binding to cynomolgus monkey TIM-3 protein ([5]; at 100 μg/mL): bound
EC50 of binding to CHO-S-HuTIM-3 cells ([6]; FIG. 1): 1.456 ± 0.338 µg/mL
maximum binding Emax (OD450), CHO-S-HuTIM-3 cells ([6]; FIG. 1, OD450): 0.21±0.03
AUC0-168 h [7]: 8142.0 µg·h/mL
Cmax [7]: 150.3 µg/mL
serum concentration 168 h after administration [7]: 29.4 ± 2.3 µg/mL
CD3^+/CD45^+ (%) in TILs [8, 10]: 97.7 ± 1.1%
CD4^+/CD3^+ (%) in TILs [8, 10]: 52.7 ± 5.3%
CD8^+/CD3^+ (%) in TILs [8, 10]: 29.3 ± 3.9%
CD8^+/CD4^+ (%) in TILs [8, 10]: 56.8 ± 14.1%
CD3^+/CD45^+ (%) in TILs [8, 11]: 97.5 ± 2.5%
CD4^+/CD3^+ (%) in TILs [8, 11]: 43.3 ± 8.0%
CD8^+/CD3^+ (%) in TILs [8, 12]: 46.9±6.9%
CD8^+/CD4^+ (%) in TILs [8, 12]: 112.7±32.1%
binding to mouse TIM-3 protein (mouse TIM-3): no obvious binding
binding to human EGFR protein (human EGFR): no obvious binding
ADCC against CHO-S-HuTIM-3 cells (CHO-S-HuTIM-3 cells [9]): did not show significant ADCC
maximum binding Emax (OD450), human TIM-3 protein (Human TIM-3; ELISA, OD450): 0.52±0.03
EC50 of binding to human TIM-3 protein (Human TIM-3; ELISA, coated antigen): 0.291 ± 0.0141 µg/mL
binding to human TIM-3 protein (Human TIM-3; at 100 μg/mL): bound
binding to rat TIM-3 protein (rat TIM-3): no obvious binding
binding to human PD-1 protein (human PD-1): no obvious binding
